# PubChem BioAssay AID686978 (National Center for Advancing Translational Sciences (NCATS), 2013)
# Where “and” joins values, the source holds several entries; their conditions need not be identical. Equal entries are not always repeated. Out of some 420,000 compounds screened, about 64,000 (15%) were called active. Inconclusive results, whose numbers are uncertain, are shown with a selection of clear calls. Calls come from the whole dose curve; as a rule, active = well fitted inhibition curve with a large enough effect; inconclusive = small, poorly fitted or top-dose-only effect; inactive = flat fitted curve, though single readings scatter. Where the call is inconclusive, the potency comes from a doubtful curve fit.
# Test: qHTS for Inhibitors of human tyrosyl-DNA phosphodiesterase 1 (TDP1): qHTS in cells in absence of CPT; note: nearly all actives have a fitted effect of over 55% in size
# Settings: DT40 Tdp1-/- hTDP1 cells, no CPT, ATP luminescence, 48 h; activity change, negative = growth inhibition: at 46.2 µM (top of the series) unless noted
# In short: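 Seeded 400 DT40-hTDP1 cells/well (vehicle DMSO, no 20 nM CPT); pinned compounds; ≥48 hr at 37 °C; CellTiter-Glo luminescence as viability measure.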
# % is set by controls: 0 for no effect and ±100 for the full control effect; potency is the fitted concentration of half-maximal effect; tags give direction and shape of the fitted curve.
SMILES,Potency,"activity change, negative = growth inhibition"
Cc1ccc(C(C)C)c(OCC(O)CN2CC(C)OC(C)C2)c1 (stereo not drawn),"inconclusive: 15.8 µM [inhibitor, single point]",
Cc1cc2ccccc2c[n+]1C1CCCCC1,active: 0.708 µM,
Cc1ccc(S(=O)(=O)C[C@@H]2OC[C@H](C)N2S(=O)(=O)c2ccc(C)cc2)cc1,"inconclusive: 29.1 µM [inhibitor, single point]",
O=C(Nc1ccccc1N1CCOCC1)C1=NN(c2c(F)c(F)cc(F)c2F)C(=O)CC1,"inconclusive: 16.4 µM [inhibitor, partial curve, poor fit]",
O=C1CC(SC(=Nc2ccccc2)Nc2ccccc2)C(=O)N1c1cccc2ccccc12 (stereo not drawn),"inconclusive: 29.1 µM [inhibitor, single point]",
Cc1c([N+](=O)[O-])c([N+](=O)[O-])nn1CC(=O)NCCc1ccccc1,,inactive: 6.88%
COc1cccc(/C=C(\C#N)c2nc3ccc(C)cc3[nH]2)c1,active: 18.4 µM,
COc1cc(OC)cc(C(=O)NCc2ccc3c(c2)cc(C)n3C)c1,"inconclusive: 29.1 µM [inhibitor, single point]",
CN(CC(=O)NCCc1ccc(F)cc1)Cc1ccc(Br)cc1,"inconclusive: 29.1 µM [inhibitor, single point]",
CCCCSCCCNC(=O)CN1C(=O)COc2ccc(S(=O)(=O)N3CCCC3)cc21,"inconclusive: 23.1 µM [inhibitor, single point]",
COc1ccccc1Nc1nc(-c2sc(NC(=O)CC(C)C)nc2C)cs1,"inconclusive: 29.1 µM [inhibitor, single point]",
COc1ccc(CNc2nc(-c3ccc(OC)c(OC)c3)cc(C(F)(F)F)n2)cc1,"inconclusive: 29.1 µM [inhibitor, single point]",
O=C(NCCN1C(=O)S/C(=C\c2cccc(Cl)c2Cl)C1=O)C1=COCCO1,active: 2.59 µM,
CC1CCN(c2ccccc2NC(=S)NC(=O)c2ccc(-c3cccc([N+](=O)[O-])c3)o2)CC1,"inconclusive: 29.1 µM [inhibitor, single point]",
O=C(Cn1c(=O)n(-c2ccccc2)c(=O)c2ccc(C(=O)NCc3ccc4c(c3)OCO4)cc21)Nc1ccc(Br)cc1F,active: 14.6 µM,
NS(=O)(=O)c1ccc(CCNC(=O)CCc2nc3ccccc3s2)cc1,,inactive: -7.4%
c1ccc(CSc2ccc(-c3cccs3)nn2)nc1,"inconclusive: 16.4 µM [inhibitor, single point]",
CCOc1ccc(NC(=O)CSc2oc(-c3cccs3)nc2S(=O)(=O)c2ccc(Cl)cc2)cc1,active: 13 µM,
Cc1ccc(S(=O)(=O)Cc2ccc(C(=O)N3CCN(c4cc(C)ccc4C)CC3)o2)cc1,active: 11.6 µM,
CCOc1ccc(CNC(=O)c2cnc(SC)nc2CC)cc1,,inactive: -2.36%
CCOCCCn1c(C)nc2c(c1=O)c1nc3ccccc3nc1n2-c1ccc2c(c1)OCCO2,"inconclusive: 16.4 µM [inhibitor, partial curve]",
COc1ccc(C(NC(C)=O)c2cc(Cl)c3cccnc3c2O)cc1OC (stereo not drawn),active: 8.91 µM and active: 4.61 µM,
O=C1[C@H]2[C@H](C=CC[C@H]2C(=O)N2CCN(c3ccccc3)CC2)CCN1Cc1ccc(Cl)c(Cl)c1,active: 15.8 µM and active: 18.4 µM,

SMILES,Potency,"activity change, negative = growth inhibition"
CSc1ccc(CN2CCC(C)(Oc3cccc(F)c3)C2)cc1 (stereo not drawn),"inconclusive: 20.6 µM [inhibitor, partial curve]",
Cc1cc(NC(=O)c2ccc(Cl)c(Cl)c2)ccc1-c1cc2ccccc2oc1=O,,inactive: -23.7%
Cc1cc(F)ccc1-c1cc(C(=O)NCc2ccccc2)[nH]n1,"inconclusive: 23.1 µM [inhibitor, single point]",
Cc1c(Cl)cccc1NC(=S)N(Cc1ccco1)C(C)c1ccccn1 (stereo not drawn),"inconclusive: 9.2 µM [inhibitor, partial curve, poor fit]",
CCCCC(=O)N(C)c1c(C)nc2ccc(C(=O)NCc3ccccc3OC)cn12,,inactive: -4.94%
COc1ccc(N2CCN(C(CNC(=O)C(=O)NCC(OC)OC)c3ccco3)CC2)cc1 (stereo not drawn),,inactive: 0.924%
Cc1ccc(NC(=O)c2noc3c2CCc2ccccc2-3)cc1,,inactive: -13.8%
Cc1ccc(CNC(=O)CSc2nc3ccsc3c(=O)n2-c2ccc(C(=O)O)cc2)cc1,,inactive: 3.95%
CC1(C)C(=O)N(CC(=O)Nc2ccc(OC(F)(F)F)cc2)c2ccccc21,"inconclusive: 11.6 µM [inhibitor, partial curve, poor fit]",
CC(C)c1ccc(C(O)P(=O)(OC2CCCCC2)OC2CCCCC2)cc1 (stereo not drawn),"inconclusive: 29.1 µM [inhibitor, partial curve, poor fit]",
COc1ccc(CC(=O)Nc2nc(-c3ccc(F)c(F)c3)cs2)cc1OC,active: 6.51 µM,
Oc1cccc(Nc2nc(-c3ccccc3)nc3ccccc23)c1,"inconclusive: 29.1 µM [inhibitor, single point] and inconclusive: 20.6 µM [inhibitor, single point]",
O=C(COC(=O)COc1cccc(Br)c1)Nc1ccc(F)cc1F,,inactive: 11.2%
CCOC(=O)c1cc(S(=O)(=O)NC2CCC(C)CC2)cn1C (stereo not drawn),"inconclusive: 18.4 µM [inhibitor, single point]",
O=C(O)Cc1csc(-c2ccc(F)cc2)n1,,inactive: -4.57%
O=C(O)c1cc(N/N=C/c2ccc(N3CCOCC3)s2)ccc1Cl,"inconclusive: 29.1 µM [inhibitor, single point]",
CCOC(=O)N1CCC(N2CCN(c3cc(C)ccc3C)CC2)CC1,"inconclusive: 16.4 µM [inhibitor, partial curve]",
CN1CCN(C(=S)c2cn(Cc3ccccc3F)c3ccccc23)CC1,"inconclusive: 29.1 µM [inhibitor, single point]",
Cn1cc(C(=O)c2ccccc2)cc1-c1nc2ccccc2n1C,active: 18.4 µM,
Cc1cccc(C)c1NC(=O)C(c1cccc2ccccc12)n1c(=O)c(-c2ccco2)nc2ccccc21 (stereo not drawn),"inconclusive: 25.9 µM [inhibitor, single point]",
CC(Oc1ccc(Cl)cc1Cl)C(=O)Nc1ccc(O)cc1 (stereo not drawn),"inconclusive: 29.1 µM [inhibitor, single point]",
CC(C)COC(=O)Nc1nnc(Cc2ccccc2)s1,active: 9.2 µM,
O=C(CCNS(=O)(=O)c1ccc(F)c(F)c1)NCCN1CCOCC1,,inactive: 1.44%

SMILES,Potency,"activity change, negative = growth inhibition"
COc1cccc(C(=O)NCC(=O)OC(C)C(=O)NC23CC4CC(CC(C4)C2)C3)c1 (stereo not drawn),"inconclusive: 29.1 µM [inhibitor, single point]",
CC(=O)c1ccc(-c2ccc([C@H]3[C@H]4C=CC[C@@H](C)[C@@H]4C(=O)N3Cc3ccccc3)c(F)c2)cc1,active: 13 µM,
Cc1ccccc1NS(=O)(=O)c1ccc(NC(=O)N2CCCCC2)cc1,"inconclusive: 29.1 µM [inhibitor, single point]",
Cc1ccc(NC(=O)c2cnn3c2NC(=C2CC2)C=C3C(F)F)cc1C,"inconclusive: 22.4 µM [inhibitor, single point]",
Cc1nc2ccc(NS(=O)(=O)c3ccccc3F)cc2s1,"inconclusive: 16.4 µM [inhibitor, partial curve, poor fit]",
CN([C@@H](C(=O)OC(C)(C)C)c1ccccc1)S(=O)(=O)c1cccc(S(=O)(=O)N(C)[C@@H](C(=O)OC(C)(C)C)c2ccccc2)c1,"inconclusive: 8.2 µM [inhibitor, partial curve, poor fit]",
CCOc1cc(C)c(S(=O)(=O)NC2CC(C)(C)NC(C)(C)C2)cc1C,,inactive: -28.9%
Clc1cccc(CNCCNCc2cccc(Cl)c2)c1,"inconclusive: 29.1 µM [inhibitor, single point]",
O=C(O)Cn1c2c(c3ccccc31)CSc1ccc(Cl)cc1-2,,inactive: -6.51%
CCc1ccc(C(=O)NNC(=O)C2CC(=O)N(c3ccc4c(c3)OCCO4)C2)cc1 (stereo not drawn),,inactive: 8.6%
CN(C)CCOc1ccc2ccccc2c1,,inactive: -16.6%
COc1ccc(C(=O)CSc2nnc(-c3ccccn3)n2Cc2ccco2)cc1,"inconclusive: 29.1 µM [inhibitor, single point]",
CNC(=S)N1CCc2cc(OC)c(OC)cc2C1COc1ccc(OC)cc1 (stereo not drawn),"inconclusive: 29.1 µM [inhibitor, single point]",
Cc1ccc(NC(=S)/N=C(\N)Nc2nc(C)c3cc(C)c(C)cc3n2)cc1C,"inconclusive: 23.1 µM [inhibitor, single point]",
Cc1ccc(NC(=O)c2ccccc2N(C)S(=O)(=O)c2ccccc2)c(C)c1,"inconclusive: 20.6 µM [inhibitor, single point]",
COc1ccccc1/C=C/C(=O)NC(=S)NC(C)C,active: 16.4 µM,
CC1(C)Cc2nc3sc4c(N(CCO)CCO)ncnc4c3cc2CO1,"inconclusive: 20 µM [inhibitor, single point]",
COc1ccc(C)cc1S(=O)(=O)N(CC(=O)NCc1ccc(Cl)cc1)Cc1ccccc1,"inconclusive: 29.1 µM [inhibitor, single point]",
Cc1sc2nc(C(C)Nc3ccccc3N3CCOCC3)[nH]c(=O)c2c1C (stereo not drawn),active: 14.6 µM,
COc1ccc(C2=Nc3ccccc3N(C(=O)c3ccc4ncccc4c3)C2C(=O)NC2CCCC2)cc1 (stereo not drawn),active: 9.2 µM,
CCOC(=O)C1CCC(CN(Cc2c(Cl)cccc2Cl)S(=O)(=O)c2ccc(F)c(C)c2)CC1 (stereo not drawn),"inconclusive: 23.1 µM [inhibitor, single point]",
CCOc1ccc(NC(=S)NCCCN2CCN(C3CCCCC3)CC2)cc1,"inconclusive: 20.6 µM [inhibitor, single point]",
